Source: the supplement of paper PMC10338343
± gives the standard deviation. The full ranking holds about 3,700 sequences; the median of “pre-steady-state target cleavage rate” is about 0.02, and the highest 2% start at about 0.23. Only a part is listed here, and it is no random draw.

test system: MILI (PIWIL2) piRISC loaded with Kctd7 piRNA (26 nt); test: pre-steady-state target cleavage rate (min^-1); MIWI and MILI are mouse PIWI proteins and EfPiwi is from a freshwater sponge; tags in brackets are library labels; higher = faster piRNA-guided slicing of the target; details: guide: Kctd7 piRNA 5'p-UGUUAAUCUCUCAGAGAAGGUGACAG; auxiliary factor: 500 nM mouse GTSF1
Procedure, shortened: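 A transcribed, DNA-blocked target RNA library […] was incubated at 33 °C for 0–8 or 0–960 min with 1 nM active affinity-purified piRISC carrying one synthetic guide, in HEPES–potassium acetate buffer with or without 500 nM GTSF1 partner protein. Uncleaved targets were then sequenced and normalised to depth and to weakly complementary targets. Data from three trials were pooled, with k3 capped at 0.0001 min^-1, and a burst-and-steady-state fit yielded the pre-steady-state cleavage rate.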
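Further: 1 nM active piRISC with 0.1 nM target library at 33 °C single turnover.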

First: UAGUGUGUGACCUUCUCUGUGAGAUUAACA
Second: UAGUGAGUCACCUGUCUCUGAGAGAUUAACA
The “pre-steady-state target cleavage rate” value of the first is lower: 0.0483 ± 0.007 for the first, 0.213 ± 0.018 for the second.

First: UAGUGACACACGUUCUCUGAGAGAUUAACA
Second: UAGUGACAGUGCUUCUGUGAGAGUUUAACA
The “pre-steady-state target cleavage rate” value of the first is higher: 0.154 ± 0.013 for the first, 0.00779 ± 0.0029 for the second.

Compared with UAGUGACACACCUAUCUCUGAGAGAUUAACA, UAGUGACAGUGCUUGACUGAGAGAUUAACA is lower in “pre-steady-state target cleavage rate” value: 0.127 ± 0.01 for the first, 0.0076 ± 0.0029 for the second.

Compared with UAGUGAGUCACCUUCUCUGGGAGAUUAACA, UAGUGAGUCACCUUCUCAGAGAGAUUAUGA is lower in “pre-steady-state target cleavage rate” value: 0.185 ± 0.016 for the first, 0.0278 ± 0.012 for the second.

Compared with UAGUCUGUCAGCUUCUCUGAGAGAUAAACA, UAGUGUGUCACCUUCUCUGUGAGAUAAACA is lower in “pre-steady-state target cleavage rate” value: 0.0441 ± 0.008 for the first, 0.0219 ± 0.0069 for the second.

First: UAGUGACAGUGCUUCUCUCUCAGAUUAACA
Second: UAGUGACACACCUUCACUGAGACAUUAACA
The “pre-steady-state target cleavage rate” value of the first is lower: 0.00315 ± 0.0025 for the first, 0.103 ± 0.013 for the second.

Going from UAGUGUGUCACCUUCGCUGAGAGAUUAACA to UAGUGACAGUGGAAGUCUGAGAGAUUCACA, the “pre-steady-state target cleavage rate” value falls from 0.134 ± 0.018 to less than 0.0001.

UAGUGACACACCUUGUCUGAGAGAUUUACA and UAGUCUGUCACCUUCUCUGUGAGAAUAACA are within error of each other in “pre-steady-state target cleavage rate” value: 0.0234 ± 0.0099 for the first, 0.0177 ± 0.0055 for the second.

First: UAGUGUGCUCACCUUCUCUGAGAGAUUAACA
Second: UAGUCUGUCACCUUCACUGAGACAUUAACA
The “pre-steady-state target cleavage rate” value of the first is higher: 0.205 ± 0.013 for the first, 0.098 ± 0.013 for the second.

First: UAGUGACAGUGGAAGUCUGAGAGAUUUUCA
Second: UAGUGACACACCUUCUCUGAGAGAUAUACA
The “pre-steady-state target cleavage rate” value of the first is lower: less than 0.0001 for the first, 0.031 ± 0.016 for the second.

Compared with UAGUGACAGUGGUAUCUCUGAGAGAUUAACA, UAGUGUGUCUCCUUCUCUGAGAGAUUAUCA is higher in “pre-steady-state target cleavage rate” value: 0.00403 ± 0.002 for the first, 0.0619 ± 0.011 for the second.

First: UAGUGACUCACCUUGUCUGAGAGUUUAACA
Second: UAGUGAGUCUCGUUCUCUGAGAGAUUAACA
The “pre-steady-state target cleavage rate” value of the first is lower: 0.0235 ± 0.011 for the first, 0.133 ± 0.0076 for the second.

UAGUGACACACCUUCACUGAGAGAUUAUCA and UAGUGACACACCUUCUCUGUGAGAUAAACA are within error of each other in “pre-steady-state target cleavage rate” value: 0.0372 ± 0.014 for the first, 0.024 ± 0.0088 for the second.

UAGUGACUCCCCUUCUCUGAGAGAUUAACA and UAGUGUGUCACUUUCUCUGAGAGAUUAACA are within error of each other in “pre-steady-state target cleavage rate” value: 0.154 ± 0.014 for the first, 0.165 ± 0.018 for the second.

First: UAGUGACUCACCUUCUCUCAGACAUUAACA
Second: UAGUGACACUGGUUCUCUGAGAGAUUAACA
The “pre-steady-state target cleavage rate” value of the first is lower: 0.022 ± 0.0053 for the first, 0.0992 ± 0.0058 for the second.

First: UAGUGACAGUGGAAGUCUGACAGAUUAAGA
Second: UAGUGUGUCACCUUGUCUGUGAGAUUAACA
The “pre-steady-state target cleavage rate” value of the first is lower: less than 0.0001 for the first, 0.0348 ± 0.0058 for the second.

Going from UAGUGUGUCAACCUUCUCUGAGAGAUUAACA to UAGUCUGUCACUCUUCUCUGAGAGAUUAACA, the “pre-steady-state target cleavage rate” value rises from 0.0779 ± 0.012 to 0.123 ± 0.0081.

First: UAGUGACACACCUUCUCUGAGAGCUUAACA
Second: UAGUGAGUCACGUACUCUGAGAGAUUAACA
The “pre-steady-state target cleavage rate” value of the first is lower: 0.091 ± 0.013 for the first, 0.119 ± 0.0087 for the second.

First: UAGUGUGUCACCUUCUCUUAGAGAUUAACA
Second: UAGUGACACACCUUUUCUGAGAGAUUAACA
The “pre-steady-state target cleavage rate” value of the first is lower: 0.0988 ± 0.011 for the first, 0.123 ± 0.013 for the second.

UAGUGACUCACCUUCUCUGAGAUAUUAACA and UAGUGACAGACCUUCUCUGAGAGAUCAACA are within error of each other in “pre-steady-state target cleavage rate” value: 0.0786 ± 0.012 for the first, 0.078 ± 0.029 for the second.

Going from UAGUCUGUCACCUUGUCUGAGAGAUUUACA to UAGUGACAGACCUUCUCUGUGAGAUUAUCA, the “pre-steady-state target cleavage rate” value falls from 0.144 ± 0.032 to 0.0125 ± 0.0065.

First: UAGUGUGUCACCUUCUCUGAGAGUUUAUCA
Second: UAGUCUGUCACCUUGACUGAGAGAUUAACA
The “pre-steady-state target cleavage rate” value of the first is higher: 0.198 ± 0.066 for the first, 0.0531 ± 0.0079 for the second.

Going from “UAGUCUGUCACCUUCUCUGAGAGAUUAACA [g2:g26:cont:t1A]” to UAGUGACACACCUUCUCUGAGAGAUAAACA, the “pre-steady-state target cleavage rate” value falls from 0.22 ± 0.013 to 0.114 ± 0.019.

UAGUGACAGUCCUUCACAGAGAGAUUAACA and UAGUGACAGUCCUUCACUGAGAGAUUUACA are within error of each other in “pre-steady-state target cleavage rate” value: 0.0077 ± 0.0037 for the first, 0.00586 ± 0.0042 for the second.

Going from UAGUGACACUCCUACUCUGAGAGAUUAACA to UAGUGUCUCUCCUUCUCUGAGAGAUUAACA, the “pre-steady-state target cleavage rate” value falls from 0.0925 ± 0.0083 to 0.0622 ± 0.013.

Compared with UAGUGAGUCACCUUCUCUGAGAGAUUAGCA, UAGUGACUCACCAUCUCUGAGAGAUUUACA is lower in “pre-steady-state target cleavage rate” value: 0.168 ± 0.036 for the first, 0.0751 ± 0.013 for the second.

Going from UAGUGACACACGUUCUCUGAGACAUUAACA to UAGUGACAGUCCUACUCUGAGAGAUUUACA, the “pre-steady-state target cleavage rate” value rises from 0.00413 ± 0.0027 to 0.00954 ± 0.0021.

Going from UAGUGACUCACCUUCUCUGUGAGAUUAUGA to UAGUGACAGACCUUGUGUGAGAGAUUAACA, the “pre-steady-state target cleavage rate” value rises from 0.00983 ± 0.0044 to 0.0439 ± 0.0099.

Compared with UAGUGACAGUGCUUCUCUGAGAGAUUACACA, UAGUGACAGACCUUCUCUGUGAGUUUAACA is higher in “pre-steady-state target cleavage rate” value: 0.00804 ± 0.0026 for the first, 0.0183 ± 0.0069 for the second.

First: UAGUGACACACGUUGUCUGAGAGAUUAACA
Second: UAGUGAGACACCUUCUCAGAGAGAUUAACA
The “pre-steady-state target cleavage rate” value of the first is higher: 0.126 ± 0.0098 for the first, 0.0908 ± 0.011 for the second.

Compared with UAGUGACAGUGCUUACUCUGAGAGAUUAACA, UAGUGAGACACCUUCUCUGUGAGAUUAACA is higher in “pre-steady-state target cleavage rate” value: 0.0124 ± 0.0026 for the first, 0.0419 ± 0.0068 for the second.

First: UAGUGUGUCACCUUCUCAGAGAGAUAAACA
Second: UAGUGACUCUCCUUCUCUCAGAGAUUAACA
The “pre-steady-state target cleavage rate” value of the first is higher: 0.0708 ± 0.021 for the first, 0.0261 ± 0.0033 for the second.

Compared with UAGUGACAGUCCAUCUCUGUGAGAUUAACA, UAGUGUGUCACCAUCUCUCAGAGAUUAACA is higher in “pre-steady-state target cleavage rate” value: 0.00917 ± 0.0019 for the first, 0.0511 ± 0.01 for the second.

Compared with UAGUGACAGUGGAUGUCUGAGAGUUUAACA, UAGUGUGUCACCUUCUCUAAGAGAUUAACA is higher in “pre-steady-state target cleavage rate” value: less than 0.0001 for the first, 0.1 ± 0.015 for the second.

Going from UAGUGAGUCACCAUUCUCUGAGAGAUUAACA to UAGUGUGUCACGUUGUCUGAGAGAUUAACA, the “pre-steady-state target cleavage rate” value falls from 0.19 ± 0.015 to 0.137 ± 0.01.

Going from UAGUGUGUCAGGUUCUCUGAGAGAUUAACA to UAGUGAGUCACCUUCUCUGAUAGAUUAACA, the “pre-steady-state target cleavage rate” value falls from 0.13 ± 0.012 to 0.0547 ± 0.0083.
